Assay results reported in the supplement of paper PMC8728848.
Some of the results follow.

Columns and labels:
Experiment in all cases: glycan array binding signal (z-score within array); higher = stronger binding
Conditions in all cases: glycan notation: IUPAC condensed, linker removed; mutation: E227G
[1] = molecular target: Gal(b1-4)GlcNAc(b1-3)Gal(b1-4)GlcNAc(b1-2)Man(a1-3)[Gal(b1-4)GlcNAc(b1-3)Gal(b1-4)GlcNAc(b1-2)Man(a1-6)]Man(b1-4)GlcNAc(b1-4)[Fuc(a1-6)]GlcNAc
Outline: (§1)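 From the Consortium for Functional Glycomics database, 3228 arrays were curated, keeping only those whose protein sequence was available. Binding is given as a within-array Z-score averaged across arrays sharing a protein sequence and across linkers. Negative Z-scores can be read as non-binding.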

[2] = molecular target: Gal(b1-4)GlcNAc(b1-3)Gal(b1-4)GlcNAc(b1-2)[Gal(b1-4)GlcNAc(b1-3)Gal(b1-4)GlcNAc(b1-6)]Man(a1-6)[Gal(b1-4)GlcNAc(b1-3)Gal(b1-4)GlcNAc(b1-2)Man(a1-3)]Man(b1-4)GlcNAc(b1-4)GlcNAc
Outline: as §1

[3] = molecular target: Gal(b1-4)GlcNAc(b1-3)Gal(b1-4)GlcNAc(b1-2)[Gal(b1-4)GlcNAc(b1-3)Gal(b1-4)GlcNAc(b1-6)]Man(a1-6)[Gal(b1-4)GlcNAc(b1-3)Gal(b1-4)GlcNAc(b1-2)Man(a1-3)]Man(b1-4)GlcNAc(b1-4)[Fuc(a1-6)]GlcNAc
Outline: as §1

[4] = molecular target: Gal(b1-4)GlcNAc(b1-3)Gal(b1-4)GlcNAc(b1-3)Gal(b1-4)GlcNAc
Outline: as §1

[5] = molecular target: Gal(b1-4)GlcNAc(b1-3)Gal(b1-4)GlcNAc(b1-3)Gal(b1-4)GlcNAc(b1-2)Man(a1-3)[Gal(b1-4)GlcNAc(b1-3)Gal(b1-4)GlcNAc(b1-3)Gal(b1-4)GlcNAc(b1-2)Man(a1-6)]Man(b1-4)GlcNAc(b1-4)GlcNAc
Outline: as §1

[6] = molecular target: Gal(b1-4)GlcNAc(b1-3)Gal(b1-4)GlcNAc(b1-3)Gal(b1-4)GlcNAc(b1-2)Man(a1-3)[Gal(b1-4)GlcNAc(b1-3)Gal(b1-4)GlcNAc(b1-3)Gal(b1-4)GlcNAc(b1-2)Man(a1-6)]Man(b1-4)GlcNAc(b1-4)[Fuc(a1-6)]GlcNAc
Outline: as §1

[7] = molecular target: Gal(b1-4)GlcNAc(b1-3)Gal(b1-4)GlcNAc(b1-3)Gal(b1-4)GlcNAc(b1-2)[Gal(b1-4)GlcNAc(b1-3)Gal(b1-4)GlcNAc(b1-3)Gal(b1-4)GlcNAc(b1-6)]Man(a1-6)[Gal(b1-4)GlcNAc(b1-3)Gal(b1-4)GlcNAc(b1-3)Gal(b1-4)GlcNAc(b1-2)Man(a1-3)]Man(b1-4)GlcNAc(b1-4)[Fuc(a1-6)]GlcNAc
Outline: as §1

[8] = molecular target: Gal(b1-4)GlcNAc(b1-3)Gal(b1-4)GlcNAc(b1-3)Gal(b1-4)GlcNAc(b1-3)Gal(b1-4)GlcNAc(b1-2)Man(a1-3)[Gal(b1-4)GlcNAc(b1-3)Gal(b1-4)GlcNAc(b1-3)Gal(b1-4)GlcNAc(b1-3)Gal(b1-4)GlcNAc(b1-2)Man(a1-6)]Man(b1-4)GlcNAc(b1-4)GlcNAc
Outline: as §1

[9] = molecular target: Gal(b1-4)GlcNAc(b1-3)Gal(b1-4)GlcNAc(b1-3)Gal(b1-4)GlcNAc(b1-3)Gal(b1-4)GlcNAc(b1-2)Man(a1-3)[Gal(b1-4)GlcNAc(b1-3)Gal(b1-4)GlcNAc(b1-3)Gal(b1-4)GlcNAc(b1-3)Gal(b1-4)GlcNAc(b1-2)Man(a1-6)]Man(b1-4)GlcNAc(b1-4)[Fuc(a1-6)]GlcNAc
Outline: as §1

[10] = molecular target: Gal(b1-4)GlcNAc(b1-3)Gal(b1-4)GlcNAc(b1-3)Gal(b1-4)GlcNAc(b1-3)Gal(b1-4)GlcNAc(b1-2)[Gal(b1-4)GlcNAc(b1-3)Gal(b1-4)GlcNAc(b1-3)Gal(b1-4)GlcNAc(b1-3)Gal(b1-4)GlcNAc(b1-6)]Man(a1-6)[Gal(b1-4)GlcNAc(b1-3)Gal(b1-4)GlcNAc(b1-3)Gal(b1-4)GlcNAc(b1-3)Gal(b1-4)GlcNAc(b1-2)Man(a1-3)]Man(b1-4)GlcNAc(b1-4)[Fuc(a1-6)]GlcNAc
Outline: as §1

[11] = molecular target: Gal(b1-4)GlcNAc(b1-3)Gal(b1-4)GlcNAc(b1-3)Gal(b1-4)GlcNAc(b1-3)Gal(b1-4)GlcNAc(b1-3)Gal(b1-4)GlcNAc(b1-2)Man(a1-3)[Gal(b1-4)GlcNAc(b1-3)Gal(b1-4)GlcNAc(b1-3)Gal(b1-4)GlcNAc(b1-3)Gal(b1-4)GlcNAc(b1-3)Gal(b1-4)GlcNAc(b1-2)Man(a1-6)]Man(b1-4)GlcNAc(b1-4)GlcNAc
Outline: as §1

[12] = molecular target: Gal(b1-4)GlcNAc(b1-3)Gal(b1-4)GlcNAc(b1-3)Gal(b1-4)GlcNAc(b1-3)Gal(b1-4)GlcNAc(b1-3)Gal(b1-4)GlcNAc(b1-2)Man(a1-3)[Gal(b1-4)GlcNAc(b1-3)Gal(b1-4)GlcNAc(b1-3)Gal(b1-4)GlcNAc(b1-3)Gal(b1-4)GlcNAc(b1-3)Gal(b1-4)GlcNAc(b1-2)Man(a1-6)]Man(b1-4)GlcNAc(b1-4)[Fuc(a1-6)]GlcNAc
Outline: as §1

[13] = molecular target: Gal(b1-4)GlcNAc(b1-3)Gal(b1-4)GlcNAc(b1-3)Gal(b1-4)GlcNAc(b1-3)Gal(b1-4)GlcNAc(b1-3)Gal(b1-4)GlcNAc(b1-2)[Gal(b1-4)GlcNAc(b1-3)Gal(b1-4)GlcNAc(b1-3)Gal(b1-4)GlcNAc(b1-3)Gal(b1-4)GlcNAc(b1-3)Gal(b1-4)GlcNAc(b1-6)]Man(a1-6)[Gal(b1-4)GlcNAc(b1-3)Gal(b1-4)GlcNAc(b1-3)Gal(b1-4)GlcNAc(b1-3)Gal(b1-4)GlcNAc(b1-3)Gal(b1-4)GlcNAc(b1-2)Man(a1-3)]Man(b1-4)GlcNAc(b1-4)[Fuc(a1-6)]GlcNAc
Outline: as §1

[14] = molecular target: Gal(b1-4)GlcNAc(b1-3)Gal(b1-4)GlcNAc(b1-3)Gal(b1-4)GlcNAc(b1-3)Gal(b1-4)GlcNAc(b1-3)Gal(b1-4)GlcNAc(b1-3)Gal(b1-4)GlcNAc(b1-2)Man(a1-3)[Gal(b1-4)GlcNAc(b1-3)Gal(b1-4)GlcNAc(b1-3)Gal(b1-4)GlcNAc(b1-3)Gal(b1-4)GlcNAc(b1-3)Gal(b1-4)GlcNAc(b1-3)Gal(b1-4)GlcNAc(b1-2)Man(a1-6)]Man(b1-4)GlcNAc(b1-4)GlcNAc
Outline: as §1

[15] = molecular target: Gal(b1-4)GlcNAc(b1-3)Gal(b1-4)GlcNAc(b1-3)GalNAc
Outline: as §1

[16] = molecular target: Gal(b1-4)GlcNAc(b1-3)Gal(b1-4)GlcNAc(b1-3)[Gal(b1-4)GlcNAc(b1-3)Gal(b1-4)GlcNAc(b1-6)]GalNAc
Outline: as §1

[17] = molecular target: Gal(b1-4)GlcNAc(b1-3)Gal(b1-4)GlcNAc(b1-6)[Gal(b1-3)]GalNAc
Outline: as §1

[18] = molecular target: Gal(b1-4)GlcNAc(b1-3)Gal(b1-4)[Fuc(a1-3)]GlcNAc(b1-3)Gal(b1-4)[Fuc(a1-3)]GlcNAc
Outline: as §1

[19] = molecular target: Gal(b1-4)GlcNAc(b1-3)GalNAc
Outline: as §1

[20] = molecular target: Gal(b1-4)GlcNAc(b1-3)[Fuc(a1-3)GlcNAc(b1-6)]Gal(b1-4)Glc
Outline: as §1

[21] = molecular target: Gal(b1-4)GlcNAc(b1-3)[Gal(b1-4)GlcNAc(b1-6)]Gal(b1-4)GlcNAc
Outline: as §1

[22] = molecular target: Gal(b1-4)GlcNAc(b1-3)[GlcNAc(b1-6)]Gal(b1-4)GlcNAc
Outline: as §1

[23] = molecular target: Gal(b1-4)GlcNAc(b1-6)Gal(b1-4)GlcNAc
Outline: as §1

[24] = molecular target: Gal(b1-4)GlcNAc(b1-6)GalNAc
Outline: as §1

[25] = molecular target: Gal(b1-4)GlcNAc(b1-6)[Gal(b1-3)]GalNAc
Outline: as §1

[26] = molecular target: Gal(b1-4)GlcNAc(b1-6)[Gal(b1-4)GlcNAc(b1-3)]GalNAc
Outline: as §1

[27] = molecular target: Gal(b1-4)GlcNAc6P
Outline: as §1

[28] = molecular target: Gal(b1-6)Gal
Outline: as §1

[29] = molecular target: Gal3S(b1-3)GalNAc
Outline: as §1

[30] = molecular target: Gal3S(b1-3)GlcNAc
Outline: as §1

B1: Epa1-NP-mutant-E227G (Candida glabrata), Q6VBJ0 (protein)
chain: MILNPALFLNKCVCIYTTLILLLLTNGGYATSSNDISLASKDPTTFPLGCSPDITTPKKGLSMELYSYDFRKKGSYPCWDAAYLDPNYPRTGYKSHRLLAKVDGVTGNINFYYHATKGCTPQLGHLPASYNYPKPLTMTNFTMLLYGYFRPKVTGFHTFTISADDLLFVNFGAGNAFDCCRRDSSADHFGNYQAYAIWGSKTAKDELTVHLDAGVYYPIRLFYNNRGYDGALSFTFKTESNENTVSDFSEYFFSLDDTEEGCPGLISYDSSCASVKTSKIIGIDYHTETPNENLVPITKTIYHLGIPCTGTTTTPLCGSGFYDPLANKCVTINTSSTSSVTKTTSHTTSKEVSFHSSISSQKTLIPKSIPSPYGPIKSQSIPTEMETSSEISSSEYAFSDVISTPSHSPYTKKHSSLNSSSYTSTVIHSLTSYSISQGIFSTSLSEQNITSKSSTDKFSTATSMSNNITQSSIIISQFSTNNENYTTTSMHTSSDKISTETLNNSISTTTSILFSNSSTILKNNTTIISSDKDTHYHPVNPTIVCSTNKTEIICASITQPSISNSNNHWSSSVLKFNSTTVRSTLPSSAGSNETSINVPFSSSTESNTSTSSTSTSNSKMVRSTLPSSAGSNETSISVPFSSSTESNTSTSSTSTSNSKMVRSTLPSSAGSNETSINVPFSSSTESNTSTSSTSTSNSKTVRSTPFSSAGIIMTSLSQRNNKSASSYASSNSKCYNTADSCRKVHSTPSYLLTSSYTSEGVDYDCSLVSTKLKINDTNCVNNKHTTKSCLKTSVTTTIPTLEIKTARKSSSNTIGLHSYPTSSPNKSISSAPIIGYISSFKTIKTASPSYQTSDLTTITTITSLNNPGSTAVENTHESNDKSRKTSSNDISSKHSVIKETKDAVESSNKSHQTNTLKCSSIIIASSSHNSYESLGGTTLTLTLSKVYSPQNNDTLPFLEISEVNPSRTVLPESSKMMQYLTSTEERNKTARNTIATNIVSISTFHFEGEGNAIRMGYTQLLLMLIGIIVMNIGT
- glycan array binding signal (z-score) [1]: 0.016
- glycan array binding signal (z-score) [2]: 0.025
- glycan array binding signal (z-score) [3]: 0.012
- glycan array binding signal (z-score) [4]: -0.209
- glycan array binding signal (z-score) [5]: 0.047
- glycan array binding signal (z-score) [6]: 0.042
- glycan array binding signal (z-score) [7]: 0.041
- glycan array binding signal (z-score) [8]: -0.21
- glycan array binding signal (z-score) [9]: 0.034
- glycan array binding signal (z-score) [10]: -0.043
- glycan array binding signal (z-score) [11]: 0.044
- glycan array binding signal (z-score) [12]: -0.226
- glycan array binding signal (z-score) [13]: 0.239
- glycan array binding signal (z-score) [14]: -0.163
- glycan array binding signal (z-score) [15]: -0.11
- glycan array binding signal (z-score) [16]: 0.004
- glycan array binding signal (z-score) [17]: 0.189
- glycan array binding signal (z-score) [18]: -0.196
- glycan array binding signal (z-score) [19]: -0.209
- glycan array binding signal (z-score) [20]: -0.345
- glycan array binding signal (z-score) [21]: -0.288
- glycan array binding signal (z-score) [22]: -0.219
- glycan array binding signal (z-score) [23]: -0.08
- glycan array binding signal (z-score) [24]: 0.043
- glycan array binding signal (z-score) [25]: 0.545
- glycan array binding signal (z-score) [26]: -0.07
- glycan array binding signal (z-score) [27]: -0.111
- glycan array binding signal (z-score) [28]: -0.191
- glycan array binding signal (z-score) [29]: -0.116
- glycan array binding signal (z-score) [30]: -0.163
